Experimental data taken from PubChem BioAssay AID504832 (National Center for Advancing Translational Sciences (NCATS), 2011).
About 18,000 (5.8%) of roughly 310,000 compounds were called active. This list was built around the results that the source calls inconclusive (neither active nor inactive); the mix of calls is not that of the screen. Calls follow the shape of the dose curve; as a rule, active = well fitted inhibition curve with a large enough effect; inconclusive = small, poorly fitted or top-dose-only effect, or another doubt; inactive = no such curve, though single readings can be large or run the other way. Potencies of inconclusive entries are left out as doubtful fits.

assay: Primary qHTS for delayed death inhibitors of the malarial parasite plastid, 48 hour incubation; details: P. falciparum luciferase growth in erythrocytes; series mostly up to 28.7 µM; activity change, negative = inhibition: at the top concentration
Method in brief: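 Luminescence readout; reporter = integrated firefly luciferase in P. falciparum. RBC culture at 2% hematocrit, 0.1% parasitemia final, 37 C/5% CO2; decreased signal taken as growth inhibition.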
% is scaled to controls: 0 for no effect and ±100 for the full control effect; potency is read from the fitted curve at half-maximal effect; tags tell the direction and shape of the fitted curve.

Structure (SMILES)	Potency	activity change, negative = inhibition
Oc1ccc(C=Nc2ccc3ncccc3c2)c(O)c1	inconclusive [inhibitor, single point]	–
O=C(c1ccccc1)N1CCC(CC2CC(c3cccc(Br)c3)=NO2)(C(=O)NCC2CCCCC2)CC1 (centres undefined)	inconclusive [inhibitor, full curve, poor fit]	–
O=S(=O)(c1ccc2nc(Cc3ccccc3)[nH]c2c1)N1CCOCC1	inconclusive [inhibitor, partial curve]	–
CCC(=O)Nc1cccc(C(=O)OCC(=O)c2ccccc2Cl)c1	–	inactive: 35.5%
O=C(CCS(=O)(=O)Cc1ccc(Cl)cc1)NCCc1ccccc1	–	inactive: 47.9%
O=C(NC1CCCCC1)C(c1ccco1)N(CCc1ccccc1)C(=O)C(F)(F)F (centres undefined)	inconclusive [inhibitor, single point]	–
COc1ccc(NC(=O)CC2CCCCC2)cc1OC	active: 3.29 µM	–
O=C(O)c1cc(N/N=C/c2cccs2)ccc1Cl	–	inactive: 122%
N#CCSc1nc2c(sc(=S)n2Cc2ccco2)c(=O)n1-c1ccc(F)cc1	inconclusive [inhibitor, single point]	–
CCn1c(SCc2ccc(C(=O)Nc3nccs3)cc2)nnc1-c1ccc(NC(C)=O)cc1	inconclusive [inhibitor, full curve, poor fit]	–
Cc1ccc2[nH]c(=O)c3cc(C(=O)NCCC(C)C)sc3c2c1	inconclusive [inhibitor, partial curve, poor fit]	–
COc1ccc(S(=O)(=O)NCCC(=O)N2CCCC2)cc1N(C)S(C)(=O)=O	–	inactive: 9.35%
Cc1c([C@@H]2C[C@H]3CN(Cc4cccc(Cl)c4)C(=O)[C@]34CCCN24)cnn1C	inconclusive [inhibitor, partial curve]	–
COc1cccc(CC2(CO)CCCN(Cc3[nH]c4ccc(C)cc4c3C)C2)c1 (centres undefined)	active: 9.28 µM	–
CN(CC(=O)NCc1ccco1)CC(=O)Nc1cc(S(C)(=O)=O)ccc1Cl	–	inactive: 24.5%
CCC(CO)Oc1cc(NCc2ccccc2F)c2ncn(C(C)C)c2c1 (centres undefined)	active: 5.22 µM	–
COc1ccc(C(=O)C[n+]2cccc(C)c2C)cc1[N+](=O)[O-]	active: 7.38 µM	–
CC(=O)c1ccc(N(C(=O)c2csnn2)C(C(=O)NC(C)(C)C)c2cccs2)cc1 (centres undefined)	–	inactive: -23.1%
CC1(C(=O)O)CCC(C(=O)N2CCCCC2)C1(C)C (centres undefined)	–	inactive: 8.5%
CCCCCn1c(C(Cc2ccccc2)NC(C)=O)nc2ccccc21 (centres undefined)	inconclusive [inhibitor, single point]	–
Cc1ccccc1-n1c(O)c(/C=C2/C(c3ccccc3)=Nc3ccccc32)c(=O)[nH]c1=O	active: 11.7 µM	–
COC(=O)c1ccc(CN2CCN(CCc3ccccc3)C(CCO)C2)cc1 (centres undefined)	inconclusive [inhibitor, full curve, poor fit]	–
CCN(CC(=O)Nc1cccc(S(=O)(=O)N(C)c2ccccc2)c1)Cc1cccs1	inconclusive [inhibitor, single point]	–

Structure (SMILES)	Potency	activity change, negative = inhibition
CC(CN1CCN(C)CC1)OC(=O)c1ccc(Cl)cc1Cl (centres undefined)	inconclusive [inhibitor, single point]	–
CN(CC(=O)Nc1cccc(F)c1)C(=O)c1ccc(OCc2ccccc2)cc1	inconclusive [inhibitor, single point]	–
COc1cc(/C=C2\SC(c3ccccc3)=NC2=O)cc(Cl)c1O	inconclusive [inhibitor, partial curve]	–
COc1ccc(NC(=O)c2sc3ncnc(N4CCN(c5ccccn5)CC4)c3c2C)cc1Cl	active: 6.57 µM	–
CCOC(=O)c1cccc(NC(=O)c2cnc3ccccc3n2)c1	inconclusive [inhibitor, single point]	–
Clc1ccc2c(c1)C(N1CCNCC1)=Nc1ccccc1O2	inconclusive [inhibitor, single point]	–
Cc1ccsc1/C=N/N1CCN(C2c3ccccc3-c3ccccc32)CC1	inconclusive [inhibitor, partial curve, poor fit]	–
CC(C)N=C(N)/N=C(\N)Nc1ccc(Cl)cc1	active: 2.87 µM	–
OCCN(CCO)c1ccc(C(c2ccccc2Cl)c2ccc(N(CCO)CCO)cc2Cl)c(Cl)c1	inconclusive [inhibitor, single point]	–
CCOc1cc(/C=C/c2cccc[n+]2C)ccc1OCC(=O)Nc1ccc(C)cc1	active: 0.928 µM	–
O=c1c(Cl)c(NCc2ccc(F)cc2)cnn1C12CC3CC(CC(C3)C1)C2	active: 13.1 µM	–
O=C(CCCN1C(=O)c2ccccc2C1=O)Nc1sc2c(c1C(=O)NCc1ccco1)CCC2	inconclusive [inhibitor, single point]	–
COc1ccc(NS(=O)(=O)c2cc(NC(=O)C3CC3)ccc2N2CCOCC2)cc1	inconclusive [inhibitor, full curve, poor fit]	–
COC(=O)/C=C1/S/C(=N/NC(=O)c2ccccc2)NC1=O	inconclusive [inhibitor, single point]	–
CC(C)c1nnc(NC(=O)c2ccc(S(=O)(=O)N3CCOCC3)cc2)s1	–	inactive: 13.5%
COc1ccc(CNC(=O)c2ccc(Cl)c(S(=O)(=O)N3CCOCC3)c2)cc1OC	inconclusive [inhibitor, partial curve]	–
N#Cc1ccccc1OCC(=O)N1N=C(c2cccs2)CC1c1ccco1 (centres undefined)	inconclusive [inhibitor, single point]	–
Cc1cccc(NS(=O)(=O)c2cc3c(cc2C)n(C)c(=O)c(=O)n3C)c1	inconclusive [inhibitor, single point]	–
COc1ccccc1S(=O)(=O)Nc1cc(C)nn1-c1ccc(C)cc1	active: 2.62 µM	–
COc1ccc2c(COC(=O)CC3Sc4ccccc4NC3=O)cc(=O)oc2c1 (centres undefined)	inconclusive [inhibitor, single point]	–
CN1CCCN(S(=O)(=O)c2cccc(Cl)c2Cl)CC1	–	inactive: -14.9%
CCCCn1c(SCC(=O)OCC)nc2c(sc(=S)n2-c2ccccc2OC)c1=O	inconclusive [inhibitor, partial curve, poor fit]	–
COc1ccc(NC(=O)CN(C)C(=O)c2cc(-c3ccc(C)o3)nc3ccccc23)cc1	inconclusive [inhibitor, single point]	–

Structure (SMILES)	Potency	activity change, negative = inhibition
CCN1CCN(c2nnc(-c3ccc(C)cc3)c3ccccc23)CC1	–	inactive: 12.8% [at 0.00184 µM]
COc1cc(/C=N/NC(=O)/C(=C\c2ccc3c(c2)OCO3)NC(=O)c2ccccc2)ccc1O	–	inactive: 0.576%
Nc1c(C(=O)NCCN2CCOCC2)c2nc3ccccc3nc2n1CCc1ccccc1F	inconclusive [inhibitor, single point]	–
CCOC(=O)C1CCN(C(=O)c2cc(S(=O)(=O)N3CCCCCC3)ccc2OC)CC1	inconclusive [inhibitor, partial curve]	–
c1csc(Cc2nn3c(-c4n[nH]c5c4CCC5)nnc3s2)c1	inconclusive [inhibitor, single point]	–
COC(=O)C1=C(C)N(Cc2ccccc2)C(=NCCN2CCOCC2)N[C@H]1CCc1ccccc1	–	inactive: -1.26%
CCN1CCN(Cc2ccc(NC(=O)c3ccc(C)c(NC(=O)C[C@@H]4NC(=O)[C@H](Cc5ccccc5)NC4=O)c3)cc2C(F)(F)F)CC1	inconclusive [inhibitor, partial curve, poor fit]	–
Nc1ccc(C(=O)C(=O)c2ccc(N)cc2)cc1	–	inactive: 0%
O=C(CCCN1C(=O)/C(=C/c2cccs2)SC1=S)Nc1ccccc1O	inconclusive [inhibitor, partial curve, poor fit]	–
COC(=O)C1=C(c2ccc(F)cc2F)C[C@@H]2CC[C@H]1N2C(=O)NCCNC(C)=O	–	inactive: -8.59%
CC(C)CCNC(=O)c1cc(C(=O)c2cc(F)ccc2O)cn(CCC(C)C)c1=O	active: 1.47 µM	–
O=c1cc(C(F)(F)F)[nH]c2ccc(C(F)(F)F)cc12	inconclusive [inhibitor, full curve, poor fit]	–
COC(=O)c1cn(NC(=O)C2CCC(C(C)(C)C)CC2)c(=O)c2ccccc12 (centres undefined)	–	inactive: 15.7%
CCOC(=O)/C(C#N)=C/c1c[nH]c2ccccc12	inactive	–
CC(=O)c1ccccc1OCCCN1CCCCC1	inconclusive [inhibitor, partial curve, poor fit]	–
CC1CN(CCCOc2ccccc2-c2ccccc2)CC(C)O1 (centres undefined)	inconclusive [inhibitor, single point]	–
Cc1ccc(CN2CCN(/N=C/c3ccc(C)s3)CC2)cc1	–	inactive: 18.8%
CC1CC(C)CN(S(=O)(=O)c2cc3c4c(c2)CCC(=O)N4CCC3)C1 (centres undefined)	inconclusive [inhibitor, partial curve]	–
CCOC(=O)C1C(=O)C=C(/C=C/c2ccc(N(C)C)cc2)CC1c1ccccc1 (centres undefined)	inconclusive [inhibitor, partial curve, poor fit]	–
CCn1c(NCc2cc(Cl)ccc2O)nc2ccccc21	active: 7.38 µM	–
CN(C)CCCNc1oc(-c2ccccc2Cl)nc1S(=O)(=O)c1ccc(F)cc1	inconclusive [inhibitor, full curve, poor fit]	–
CN(C(=O)c1ccccc1Cl)c1ccccc1	inconclusive [inhibitor, single point]	–
CNc1nc(Sc2ccc(C)cc2)cc(C(F)(F)F)n1	inconclusive [inhibitor, full curve, poor fit]	–
